Results taken from publication PMC4336329 (PLoS ONE, 2015).
Out of some 310,000 compounds screened, about 2,200 (0.71%) showed an effect of 50% or more. Effects have a minus sign here. Some of the results follow.

What follows are compounds tested against human ether-à-go-go-related gene (hERG) potassium channel (human, UniProt Q12809) (assay: primary screen, population patch clamp on CHO cells stably expressing hERG).
Sequence of human ether-à-go-go-related gene (hERG) potassium channel (Q12809 whole entry, looked up): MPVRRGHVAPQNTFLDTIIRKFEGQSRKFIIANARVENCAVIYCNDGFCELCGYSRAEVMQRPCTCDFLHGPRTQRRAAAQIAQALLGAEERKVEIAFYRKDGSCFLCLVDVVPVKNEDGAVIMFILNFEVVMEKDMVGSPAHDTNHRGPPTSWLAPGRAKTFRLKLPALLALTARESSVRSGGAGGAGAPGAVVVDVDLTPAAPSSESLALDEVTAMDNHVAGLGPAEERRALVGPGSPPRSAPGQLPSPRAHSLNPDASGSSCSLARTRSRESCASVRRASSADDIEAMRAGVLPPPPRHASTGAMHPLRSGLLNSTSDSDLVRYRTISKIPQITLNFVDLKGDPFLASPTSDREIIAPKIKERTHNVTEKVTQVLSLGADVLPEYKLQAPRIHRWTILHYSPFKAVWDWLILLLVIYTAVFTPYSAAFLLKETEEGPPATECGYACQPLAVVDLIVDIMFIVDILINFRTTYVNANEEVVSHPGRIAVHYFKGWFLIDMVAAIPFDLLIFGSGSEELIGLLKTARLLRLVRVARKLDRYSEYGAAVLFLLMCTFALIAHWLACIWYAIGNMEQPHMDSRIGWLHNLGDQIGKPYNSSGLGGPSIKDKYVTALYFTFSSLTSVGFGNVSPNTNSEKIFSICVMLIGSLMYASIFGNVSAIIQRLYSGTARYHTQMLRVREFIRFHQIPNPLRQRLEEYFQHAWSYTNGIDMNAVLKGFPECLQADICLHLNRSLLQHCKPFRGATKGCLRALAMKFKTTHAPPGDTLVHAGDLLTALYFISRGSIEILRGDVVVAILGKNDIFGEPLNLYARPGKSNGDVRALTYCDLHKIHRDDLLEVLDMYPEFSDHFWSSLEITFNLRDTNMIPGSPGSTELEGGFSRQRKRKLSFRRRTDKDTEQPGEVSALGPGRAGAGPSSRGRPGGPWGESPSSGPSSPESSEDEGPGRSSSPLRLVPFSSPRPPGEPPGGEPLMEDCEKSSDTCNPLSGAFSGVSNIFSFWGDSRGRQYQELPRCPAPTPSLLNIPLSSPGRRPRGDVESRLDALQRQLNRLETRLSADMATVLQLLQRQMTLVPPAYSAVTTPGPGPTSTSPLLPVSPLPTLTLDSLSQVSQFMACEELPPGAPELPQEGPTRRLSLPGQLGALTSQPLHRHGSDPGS

SMILES	hERG current change (%, negative = inhibition) at 1uM [%]
COc1cccc(C(=O)NC2CCN(CC(=O)Nc3ccccc3Cl)CC2)c1	-0.821
COc1ccc(C2C(C(=O)OC3CCCCC3)=C(C)Nc3nnnn32)c(OC)c1OC (centres unmarked)	-1.92
O=C(NN=C1CCCCCC1)c1ccc(Br)o1	18.8
COc1ccc(CN2CCN(c3cc(C)nc4c5c(C)cc(C)nc5nn34)CC2)cc1F	-7.22
N#Cc1cccc(NCC(=O)Nc2ccc3c(c2)OCCO3)c1	13.1
O=C(C[n+]1cc(Br)cc(Br)c1)c1ccc(-c2ccccc2)cc1.[Br-]	8.91
Cc1ccc(NC(=O)CCc2nc(-c3cccs3)no2)c(Br)c1	9.09
COc1ccccc1C(=O)N/N=C/c1ccc(Cl)s1	1.11
CC(O)(CS(=O)(=O)c1cccc(C(F)(F)F)c1)C(=O)Nc1cccc(C(F)(F)F)c1 (centres unmarked)	-7.03
COC(=O)C1=C[C@@H](C(=O)OC)[C@@H]2C3=C(C(=O)[C@@]2(C)NC(=O)c2ccccc2)[C@H](c2ccccc2)[C@@H]2C(=O)NC(=O)[C@@H]2[C@@H]3C1	4.37
O=C(CN(CC1CCCO1)S(=O)(=O)c1ccc(S(=O)(=O)NCC2CCCO2)cc1)Nc1ccccc1 (centres unmarked)	-11.9
O=C(c1ccc(Br)o1)N(c1ccc(Br)cc1)C1C=CS(=O)(=O)C1 (centres unmarked)	-9.01
Cn1c(=NC(=O)c2ccco2)sc2ccccc21	2.78
COCCCNC(=S)NNC(=S)Nc1ccc(F)cc1F	21.1
CCn1cc(CCC(=O)O)c(C)n1	8.81
CN(Cc1ccccc1)C(=O)c1ccccc1NC(=O)c1ccco1	17.5
Cc1cc(=O)oc2cc(OCC3CC(c4ccccc4Cl)=NO3)ccc12 (centres unmarked)	-1.89
C/C(=N\Nc1ccc(Cl)cc1)c1ccncc1.Cl	5.64
CCc1cc2c(=O)c(-n3cnc4ccccc43)coc2cc1O	-1.87

SMILES	hERG current change (%, negative = inhibition) at 1uM [%]
O=C(CCC(=O)N1CCN(c2ccccc2F)CC1)N1CCN(c2ccc(F)cc2)CC1	-21.2
C=C(C)CSc1nc2ccccc2[nH]1	11.4
CCOc1ccc(OCCn2c(=S)[nH]c3ccccc32)cc1	17.8
COc1cc(S(=O)(=O)N(C)C)ccc1F	26
CCCCN(Cc1ccco1)C(=O)Cn1ncc2c(=O)oc3ccc(C)cc3c21	12.7
CC1CCN(CC(=O)Nc2ccc(C(=O)N3CCCCC3)cc2)CC1.O=C(O)C(=O)O	11.3
CC12CCC(=O)N1C(C(=O)OCC(=O)Nc1ccc(C(F)(F)F)cc1)CS2 (centres unmarked)	7.73
O=C(O)c1ccccc1C(=O)c1ccc(N2CCCC2)c([N+](=O)[O-])c1	14.3
O=C(Cc1ccccc1)N1CCN(C(=O)c2cccs2)CC1	4.21
Cc1cc2c(cc1C)C(c1ccsc1)CC(=O)N2 (centres unmarked)	9.06
CCOC(=O)C1(CCc2ccccc2)CCN(C(=O)CN2CCOC2=O)CC1	13.2
COc1ccc(C)cc1N(C)C(=O)c1coc(=O)c2ccccc12	11.5
COc1ccc(NC(=O)c2cc(-c3cccs3)on2)cc1	12.7
O=C(CC1C(=O)NCCN1C(=O)c1ccc(F)cc1)OCc1ccccc1 (centres unmarked)	10.1
CCOC(=O)C(Sc1ncn[nH]1)c1ccccc1 (centres unmarked)	4.36
CCN1C(=O)[C@H]2[C@@H](c3ccc(OC)cc3)N3C(=O)CN(Cc4ccccc4)C(=O)[C@@]3(C)[C@H]2C1=O	13.6
CCOC(=O)C(C(C)=O)c1c(Br)c(O)c(O)c2c(C(=O)c3ccc(C)cc3)coc12 (centres unmarked)	5.34
O=C(CC(Sc1ccc(Br)cc1)C(=O)O)c1ccc(F)cc1 (centres unmarked)	15.8
CCc1nc(C)ccc1OCC(=O)N(CC)CC.O.O=C(O)C(=O)O	-8.43

SMILES	hERG current change (%, negative = inhibition) at 1uM [%]
CCOc1ccc2nc(-c3cc(NC(C)=O)ccc3O)sc2c1	17.8
CN(C)C(CNC(=O)CN1C(=O)NC2(CCCC2)C1=O)c1ccccc1 (centres unmarked)	3.06
Cc1cccc([C@@H]2[C@@H]3C(=O)N(Cc4ccccc4)C(=O)[C@@H]3[C@]3(CC(C)C)C(=O)N(c4cccc(F)c4)C(=O)N23)c1	8
O=C(Nc1ccc(Cl)c(S(=O)(=O)N2CCCCC2)c1)c1cccnc1	2.84
CCOC(=O)c1cc2c(=O)n3ccccc3nc2n(CCCOC)c1=NC(=O)C(C)(C)C	8.87
N#CC1=C(c2ccc(-c3ccccc3)cc2)COC1=O	5.25
CCN(CC)S(=O)(=O)c1cc(C(=O)OCC(=O)NC2CCCc3ccccc32)ccc1C (centres unmarked)	-9
COC(=O)CN(c1nc(C)c(Br)c(OC)n1)S(=O)(=O)c1ccccc1	13.6
Cc1c(CCO)c(=O)[nH]n1S(=O)(=O)c1ccc(Cl)cc1Cl	-0.58
CCCNC(=O)CN1C(=O)NC(CCc2ccccc2)C1=O (centres unmarked)	19
CC(C)CCOP(=O)(c1ccc(N(C)C)cc1)C(O)c1ccccn1 (centres unmarked)	7.4
Cc1ccc(-n2c(C)cc(/C=C3\C(=O)NC(=O)N(C)C3=O)c2C)cc1C	6.74
Cc1ccc(S(=O)(=O)Cc2ccc(C(=O)NCc3cccs3)o2)cc1	3.53
COCCCNc1nc2ccccc2nc1NS(=O)(=O)c1cc(Cl)ccc1Cl	12.5
Cc1cccc(OCCCC(=O)Nc2ccc(S(N)(=O)=O)cc2)c1C	12.3
Cn1sc(NC(=O)c2ccccc2)nc1=O	-4.07
CCn1c(C(C)NC(=O)c2cccc(C)c2)n[nH]c1=S (centres unmarked)	-36.9
O=C(COC(=O)c1ccc(S(=O)(=O)N2CCCC2)cc1)NCc1cccs1	-17.6
